We go through 43 molecules from paper PMC4336329 (PLoS ONE, 2015).

The campaign covered roughly 310,000 compounds. About 2,200 (0.71%) showed an effect of 50% or more. The effect is printed as a negative number. The list shows a part of the results.

human ether-à-go-go-related gene (hERG) potassium channel, sequence (Q12809 whole entry, looked up): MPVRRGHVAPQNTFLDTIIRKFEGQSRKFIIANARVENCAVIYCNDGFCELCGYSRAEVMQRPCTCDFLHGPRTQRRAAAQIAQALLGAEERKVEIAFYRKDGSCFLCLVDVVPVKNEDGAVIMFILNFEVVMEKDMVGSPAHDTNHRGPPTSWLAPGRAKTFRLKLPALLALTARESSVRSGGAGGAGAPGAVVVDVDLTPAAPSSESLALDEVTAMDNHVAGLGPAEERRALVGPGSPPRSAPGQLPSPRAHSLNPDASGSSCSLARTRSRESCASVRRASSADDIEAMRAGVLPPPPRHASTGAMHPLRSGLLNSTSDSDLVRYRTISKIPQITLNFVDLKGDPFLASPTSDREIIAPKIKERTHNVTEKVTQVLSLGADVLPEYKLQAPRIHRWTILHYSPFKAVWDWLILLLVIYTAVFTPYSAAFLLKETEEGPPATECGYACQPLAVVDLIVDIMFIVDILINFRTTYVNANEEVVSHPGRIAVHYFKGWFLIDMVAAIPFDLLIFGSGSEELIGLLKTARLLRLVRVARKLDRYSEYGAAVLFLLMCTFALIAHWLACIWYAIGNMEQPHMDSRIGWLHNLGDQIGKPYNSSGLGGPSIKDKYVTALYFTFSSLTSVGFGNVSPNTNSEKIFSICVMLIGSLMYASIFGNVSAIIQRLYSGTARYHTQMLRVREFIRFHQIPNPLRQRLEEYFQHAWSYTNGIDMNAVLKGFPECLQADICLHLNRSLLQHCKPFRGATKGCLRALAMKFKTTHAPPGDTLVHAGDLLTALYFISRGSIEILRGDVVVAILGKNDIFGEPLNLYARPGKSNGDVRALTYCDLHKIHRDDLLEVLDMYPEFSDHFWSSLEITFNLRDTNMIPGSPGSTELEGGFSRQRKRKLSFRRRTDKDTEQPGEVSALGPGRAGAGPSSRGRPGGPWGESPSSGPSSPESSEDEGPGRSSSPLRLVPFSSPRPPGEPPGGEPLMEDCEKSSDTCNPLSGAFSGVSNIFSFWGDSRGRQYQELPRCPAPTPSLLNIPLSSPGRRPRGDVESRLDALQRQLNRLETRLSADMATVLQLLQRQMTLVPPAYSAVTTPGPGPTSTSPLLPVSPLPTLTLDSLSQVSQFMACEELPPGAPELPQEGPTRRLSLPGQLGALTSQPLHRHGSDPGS

This experiment addresses human ether-à-go-go-related gene (hERG) potassium channel (human, UniProt Q12809). In words: primary screen, population patch clamp on CHO cells stably expressing hERG.
For the molecule `O=C(CCc1nc(-c2ccccc2F)no1)NC1CCCCCC1`, the “hERG current change (%, negative = inhibition) at 1uM” value amounted to 1.09%.
The result for `CCOc1nc(-c2ccncc2)nc2ccccc12` reads -1.42%; that for `COc1ccc(CNC(=O)/C=C/c2ccc3[nH]cc(CCN(C)C)c3c2)cc1`, 9.89%; that for `Cc1ccc(-c2ncns2)cc1`, 2.37%.
The result for `O=C(COC(=O)Cc1ccc2c(c1)OCCO2)Nc1ccc(S(=O)(=O)N2CCCC2)cc1` reads 9.55%.
The result for `CCCn1c(N2CCN(C)CC2)nc2c1c(=O)[nH]c(=O)n2C` reads 8.02%.
Consider `CCn1cc(CN2CCCC(C(=O)c3ccc(-c4ccccc4)cc3)C2)cn1` (stereo not shown), for which the “hERG current change (%, negative = inhibition) at 1uM” value was determined as 8.04%.
In the case of `COc1cc(-c2nnc(SCC(=O)N(Cc3ccccc3)C(C)(C)C)o2)cc(OC)c1OC`, the “hERG current change (%, negative = inhibition) at 1uM” value was 7.12%.
Take `COc1ccc(C2CC(=O)c3cnc(N4CCc5ccccc54)nc3C2)cc1OC` (stereo not shown): the “hERG current change (%, negative = inhibition) at 1uM” value amounted to 11.8%.
Turning to `O=C(COC(=O)COc1ccccc1Cl)Nc1ccccc1OC(F)F`, the “hERG current change (%, negative = inhibition) at 1uM” value is recorded as 17.7%.
To `O=C(N/N=C/c1c[nH]c2ccccc12)c1cccc(O)c1` belongs 18.4%.
To `COc1ccc(-c2nn(CCC(=O)O)cc2/C=C2\SC(N)=NC2=O)cc1OC` belongs 11%; to `COCC1CCCN(C(=O)c2cc(COc3cccc4cccnc34)on2)C1` (stereo not shown), 7.44%.
The result for `O=C(NCCc1ccc(Cl)cc1)C1CCN(S(=O)(=O)c2cccs2)CC1` reads 5.64%; that for `CNC(=O)c1cc2c(s1)CCCCCC2`, -0.352%; that for `CCOC(=O)c1cc2c(ccn2C)n1Cc1ccc(Cl)cc1`, 10.5%.
For `C=CCn1c(CNC(=O)c2cccs2)nnc1SCc1ccc(Cl)cc1Cl`, the “hERG current change (%, negative = inhibition) at 1uM” value is given as 1.12%.
To `CC(C)N(CCCNC(=O)Cn1c(=O)c2cccn2c2ccccc21)Cc1ccccc1` belongs -12.2%.
As to `Cc1noc(C)c1COC(=O)CCN1c2ccccc2Sc2ccccc21`, the “hERG current change (%, negative = inhibition) at 1uM” value is 12.9%.
To `CN(Cc1ccccc1)C(=O)C1CCN(S(=O)(=O)c2ccc3nc4c(c(C(=O)O)c3c2)CCCC4)CC1` belongs 0.217%; to `Cc1cccc(C)c1OCC(=O)N/N=C/c1ccncc1`, 10.8%; to `COc1ccc(OC)c(NC(=O)C2CCCN(S(=O)(=O)c3c(C)noc3C)C2)c1` (stereo not shown), -1.52%.
For the molecule `CCSc1nnc(NC(=O)CSc2nc3c(c(=O)n2CC)SC(C)C3)s1` (stereo not shown), the “hERG current change (%, negative = inhibition) at 1uM” value was 11%.
To `NC(=O)C1CCN(C(=O)c2cn(-c3ccccc3)nc2-c2cccnc2)CC1` belongs 7.62%; to `COc1ccc(/C=C/C2=CC(C)(C)NC(=S)N2)cc1OC`, 19.9%; to `Cc1ccc(S(=O)(=O)N(CCO)Cc2ccccc2)cc1`, 6.57%.
The result for `Cc1cccc(NC(=O)c2cc3c([nH]c4ccccc43)c(C)n2)c1C` reads 11.3%.
Turning to `O=C(CNC(=O)OCc1ccccc1)NC1CCCCNC1=O` (stereo not shown), the “hERG current change (%, negative = inhibition) at 1uM” value was 14.1%.
To `COc1ccc(C(=O)Nc2ccc(N3CCN(C(=O)c4ccccc4)CC3)cc2)cc1[N+](=O)[O-]` belongs 2.67%; to `CCOC(=O)c1ccc(N2C(=O)c3n[nH]c(-c4ccco4)c3C2c2cccc([N+](=O)[O-])c2)cc1` (stereo not shown), -5.23%; to `O=C(CN(c1ccc2c(c1)OCCO2)S(=O)(=O)c1ccccc1)NCc1ccc(Cl)cc1`, 9.51%.
To `Cc1csc(NC(=O)CSCc2c(C)noc2C)n1` belongs 8.44%; to `Fc1ccc2c(c1)C(c1ccncc1)=NNC(c1cccnc1)=N2`, 3.07%.
The result for `CCCCCSc1ncccc1C(=O)O` reads 18.8%; that for `NC(=O)CC(NC(=O)c1cccc(Br)c1)c1ccc(N2CCN(c3ccccn3)CC2)c([N+](=O)[O-])c1` (stereo not shown), 7.47%; that for `CCN1CCN(c2cc(C)c3cc(NC(=S)N4CCCCC4)ccc3n2)CC1`, 0.276%.
On to `CC(=O)N1CCN(c2nnc(-c3ccccc3)c3ccccc23)CC1`, for which the “hERG current change (%, negative = inhibition) at 1uM” value was 11%.
To `Cc1ccccc1NC(=O)C(C)c1ccc(-c2ccccc2)c(F)c1` (stereo not shown) belongs -1.72%.
`Cc1ccc2c(c1)c1c3n2CCN(C(=O)CCl)C3CCC1` (stereo not shown): the “hERG current change (%, negative = inhibition) at 1uM” value stood at 12.2%.
To `Br.N=C1c2ccccc2CN1NC(=O)c1cccc(S(=O)(=O)N2CCCCC2)c1` belongs 14.5%; to `C#CCOCCOCCOCCNc1nc(N2CCN(C(=O)C(Cc3ccc(O)cc3)n3cc(C(N)CC(C)C)nn3)CC2)nc(N2CCN(C(=O)C(Cc3cc4ccccc4[nH]3)n3cc(C(N)C(C)CC)nn3)CC2)n1.Cl` (stereo not shown), 10.3%.
To `NS(=O)(=O)c1ccc(CNC(=O)c2ccc(Cl)cc2[N+](=O)[O-])cc1` belongs 3.89%.
On to `Cc1cccc(-n2cc(CN3CCN(C(=O)c4ncn[nH]4)CC3)c(-c3cccc(F)c3)n2)c1`, for which the “hERG current change (%, negative = inhibition) at 1uM” value was found to be 12.3%.
